# Assay results reported in the supplement of paper PMC11417369.
# ± gives the standard deviation of the averaged measurements. Some of the results follow.
# Test system: PfAP2-LT AP2 domain (GST-tagged)
# Assay: gcPBM binding intensity (ln(normalized median fluorescence intensity)); higher = stronger DNA binding
# Outline: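 The highest Masliner-normalised natural-log median intensity across replicate spots of either probe orientation is reported as binding intensity. GST-tagged P. falciparum DNA-binding domains expressed in E. coli were applied for 1 h to an Agilent 4 × 180k array of primer-extended double-stranded 36-bp intergenic genomic probes plus negative controls, and bound protein was detected with Alexa488 anti-GST antibody and scanned at 488 nm.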
row,Sequence,gcPBM binding intensity (ln)
1,TAATACAAAAACAATGTTCTTTCAAACATAAACATA [CACACA_negctrl_site1628],8.57 ± 0.5
2,TTTGCCATATGACACACACACATGTAAACCCCCTTT [CACACA_site6873],9.76 ± 0.38
3,TATTTTTATTGGTACTGTACCTATTTAGAAATACAT [XGTACX_site6663],8.76 ± 0.55
4,ATGATTTCATTTGAGAGTACGTAAAAATAATACGTA [XGTACX_site4958],8.47 ± 0.38
5,TATAATGCTCTTCTTTGTACATATTATGATTATATT [XGTACX_site2332],8.89 ± 0.52
6,ATATATATATAATATAGTACGTATAATATATGAATC [XGTACX_site4385],9.12 ± 0.32
7,AAAGGAAAATGTGTAAAAAGAAATGCTAGGTATATA [GTGCAC_negctrl_site699],8.87 ± 0.46
8,ATATAAAAAAATAAAACACACACATATATATTATAT [CACACA_site8909],9.39 ± 0.23
9,ATTTAAGCATTATTTTGTACGAAAATAAAAAAATGA [XGTACX_site6958],8.47 ± 0.4
10,AGTGGTGTTAAATGTTGTACGATTTTGTGTTATTCG [XGTACX_site178],9.24 ± 0.19
11,TTTTTGTTATATAAAGTGCAGTGACAAGCAGTTTAA,8.57 ± 0.43
12,ACTGCGTTTTTACACGCGCACTGCAATGAACAATAT,8.75 ± 0.35
13,AAGATAATCACAAAATGTACAGGAAATATGACAACC [XGTACX_site3607],9.16 ± 0.3
14,TATGTAACAAAAAAAAGTACACATATATATAGTGTA [XGTACX_site7772],8.78 ± 0.49
15,AAGAAAAAGGAACGGAAAAACAAACAAGGGGCCCAA [TGCATGCA_negctrl_site4],8.96 ± 0.57
16,AATGGTATAAACAATACACACATAATATATATATTG [CACACA_site4997],9.14 ± 0.4
17,TTTTCTAAATTAATAATACACACTTGCTAAAATCAT [CACACA_site3207],8.47 ± 0.46
18,TTTTTTTAAATATACACACACATTTATACAGATATA [CACACA_site5811],9.03 ± 0.3
19,TTTCTAAAAATAAGAACACACACATATAAGCATATA [CACACA_site8714],9.11 ± 0.28
20,ATATCATTTTCTAGCACACACATTGTTATTACCTTG [CACACA_site902],9.45 ± 0.4
21,AGTCTGAATAAAATTACACACATATACAGATATATA [CACACA_site5054],9.03 ± 0.38
22,TATGTATAATTTCATTGTACTTTTGATATTATCATA [XGTACX_site280],8.69 ± 0.38
23,TATTAGAACATATATGCATGCAATAGATATTCCAAT [TGCATGCA_site297],8.87 ± 0.35

row,Sequence,gcPBM binding intensity (ln)
1,AAGGAATAGGCATATACACACAGGTACAGATATATA [CACACA_site4402],9.4 ± 0.43
2,TTTAAATATTACATATGTACTTATAAATATATATAT [XGTACX_site1284],8.88 ± 0.45
3,AAAAAAAAAATTGAAAGTACAAATATGTATTATATA [XGTACX_site2455],8.66 ± 0.61
4,TAATAGTATATAAAAAGTACATAATAAGATATGAAA [XGTACX_site1000],8.8 ± 0.54
5,ATTATGTGCCAATACACACACACATATATATATATA [CACACA_site468],10.38 ± 0.078
6,TAAAATATGTCATGTGGTACATGAATAGCTTTTATT [XGTACX_site3809],9.13 ± 0.54
7,AAAAAAAAAAAAAACACACAAATCATAAATAAATAT [CACACA_site6362],8.88 ± 0.49
8,TTTATGGAATAATCACGTACACACAAGAAAAAAAAA [XGTACX_site985],9.01 ± 0.45
9,TGTGTGTGCTTATTTTGTACATATTAGGTAAATATT [XGTACX_site6329],9.24 ± 0.27
10,TTTTTATCTAATCTAATATTATATTATACATATAAT [XGTACX_negctrl_site275],8.56 ± 0.55
11,AACTCATAAAATAATGGTACACAAAAAAAATAAATA [XGTACX_site7648],8.9 ± 0.5
12,CAAGGAACCAGACACACACACATAAATGTATTTATA [CACACA_site6491],9.54 ± 0.46
13,TTTTTTTTTTTCTTTTGTACGTATAAAATTATATAA [XGTACX_site2453],8.51 ± 0.48
14,TTAGATTTATAAGTGTGTACGTAAAATACTTAATAA [XGTACX_site8246],8.55 ± 0.47
15,TTAGGCAAGGCGGGGGGTACGTTTTTATATAATTAT [XGTACX_site8029],10.2 ± 0.14
16,TCATATAAATACACGTGTACATATATATATTACAGT [XGTACX_site1954],9.12 ± 0.37
17,AAAAAATATATATGCACACACAAAAAAACAAATTAA [CACACA_site1278],9.38 ± 0.43
18,AATATAAAAAATAGTTGTACTATATTTAAATATGAC [XGTACX_site2937],8.69 ± 0.43
19,AGTTTGCATATGGAAGTGCATTACCTTGAACATCAT,8.82 ± 0.41
20,ACTAAACGAATAAATTGTACAAAGAAATATATTCAT [XGTACX_site6766],8.82 ± 0.45
21,CAACAAAAGTTATTTACACACAAAAGGCAAGGAAAT [CACACA_site7013],9.27 ± 0.42
22,ACTACGTGGATTAGTTCAAGGGAACACGTCCTATAC [CACACA_negctrl_site1427],8.87 ± 0.49
23,AAAGGAAATAAAAACGCACACAGAAATAATATCTAT [CACACA_site457],9.4 ± 0.47

row,Sequence,gcPBM binding intensity (ln)
1,TAAAAAATTACATATTGTACAGGCAAAATTACACAT [XGTACX_site1152],8.74 ± 0.45
2,ATATTTCATTTTTGTACACACAACGTTGGAGGGTTT [CACACA_site3043],9.19 ± 0.43
3,CCCACTAAAAAACACACACACACACCCATATATATA [CACACA_site6140],10.31 ± 0.078
4,ATATGTATTAAGTGTACACATATAATCTATCTTGTT [CACACA_site5329],8.96 ± 0.42
5,TTTTTTTTATATAGTAGTACTAATTAGAATTTTTAT [XGTACX_site7476],8.38 ± 0.53
6,TGAATTTAGATATATACACACAAAAGTATATACAAT [CACACA_site2804],9.02 ± 0.42
7,TATATGTTTTATAGTACACACATAAATGGACATACT [CACACA_site2191],8.97 ± 0.35
8,ATAAATGACAAATTAACACACATATATTATATATAT [CACACA_site3899],8.98 ± 0.39
9,GTTGGTAGGCGGTACGGTACACGTAAAGTTTTTCTT [XGTACX_site7706],8.84 ± 0.54
10,ACCATATAAATAAACACACACACACGGATATAAATA [CACACA_site7157],10.1 ± 0.2
11,TAATGCCATAATACGTGTACTTAATATATTAGAACA [XGTACX_site5809],8.75 ± 0.35
12,TACATACATACATACACACATACATATGTATATATA [CACACA_site2480],9.3 ± 0.33
13,CTCAAATGTTATTGTAGTACCTAAAAAATATATTCT [XGTACX_site1970],8.52 ± 0.37
14,TTATAATAATAGAACTTTATGTAGAAAAAAGGAAAA [XGTACX_negctrl_site116],8.44 ± 0.51
15,ACACATACTAAAATGTTGTGAAATATGATAATGTGA [CACACA_negctrl_site851],9.11 ± 0.47
16,TATATATATATATATAGTACATATTAATTAATTTAT [XGTACX_site8198],9.12 ± 0.37
17,ATATATTTTAAATATATTATTATTGCATTGTGAAAA [TGCATGCA_negctrl_site106],8.35 ± 0.33
18,TCTTAAAAAATAGGGACACGTAAATATAATATATAA [CACACA_negctrl_site554],8.68 ± 0.47
19,AAAAAAAAAAAAAAAACACACATATATATATATATA [CACACA_site2436],10.095 ± 0.0071
20,TTTAAAACCTTACATACACACAAATATGTAAATATA [CACACA_site6464],8.75 ± 0.42
21,TTCATATAACCTTATAGTACATAATTAAAAATATAA [XGTACX_site6328],8.31 ± 0.33
22,AAAAAAAAAAAAAAAACACACATATAGGTATAAATA [CACACA_site7528],8.83 ± 0.45
23,CACGCATATATACATACATGCATATATACATCCATG [TGCATGCA_site667],8.98 ± 0.41

row,Sequence,gcPBM binding intensity (ln)
1,TATTATTCTATACATTGTACATATTTTATAGTATGT [XGTACX_site73],8.94 ± 0.48
2,AAAAAAAAAAAATAGACACACATATTATATATATAT [CACACA_site1419],8.99 ± 0.42
3,ATGTGTTGGGAAAAGGCATGCACTTTTTTTTTTTTT [TGCATGCA_site707],8.85 ± 0.52
4,TTTTCCTTATATTATGCATGCAGGGTTTGACATTAT [TGCATGCA_site826],9.12 ± 0.32
5,TGATAACCTCACAAATGTACGTACGGGGCTAGCATT [XGTACX_site4157],8.99 ± 0.31
6,ATATCTATAATAAATACACACATTTATATAGATAAA [CACACA_site7518],8.79 ± 0.35
7,AACAGCATTATTTCTTATTTTTTTTTTGATATATTT [GTGCAC_negctrl_site114],8.61 ± 0.47
8,GTTATATTATTCATACGTACCTATATTTCTATTAAC [XGTACX_site3447],9.03 ± 0.46
9,AAACTTGACAGACACACACACACATATATAAAAAAA [CACACA_site757],9.8 ± 0.35
10,CTTTCCTATTTGACACGTACGAAATTTTACATAAAA [XGTACX_site6689],8.51 ± 0.39
11,AAATATATATACACATATATATATATATATATATAT [CACACA_negctrl_site1742],9.72 ± 0.19
12,TATGAAATATCGTGCACACACGAATAATATAAGAAT [CACACA_site4842],9.34 ± 0.4
13,AAAATAAAAAATATAACACACAATAAATATTTATAT [CACACA_site6986],8.93 ± 0.4
14,ACATGAAATGTTTAAAGTACATATATAAATTTTTTT [XGTACX_site4519],8.5 ± 0.44
15,AAATGTGAAGTGAATACACACCTAATAAATATAACA [CACACA_site5727],9.01 ± 0.42
16,TACTGATCTTTCTAGGTGCGCTGCTACCATTATCGT [GTGCAC_site9538],8.99 ± 0.49
17,ATATATAGATAATCAAGTACATAACAAGATATAAGA [XGTACX_site2186],8.99 ± 0.51
18,TATATTTAATTATTATGTACTTATAATTTTTGAAAG [XGTACX_site8548],8.42 ± 0.35
19,TATGTATTTATCCACTTACATTTTTACTTTTCCATT [CACACA_negctrl_site1141],8.89 ± 0.51
20,TATATATATAATATTACACACATATATTTATATTTT [CACACA_site3460],8.85 ± 0.49
